According to PMC5800818 (2018):

B1: Numb-PTBi (Numb^[…]), purified [human] / rhodamine-labeled Mdm2^[…] [modified: rhodamine label (site not stated); rhodamine label (site not stated)] [human] (parent complex)
chain 1: SRPHQWQTDEEGVRTGKCSFPVKYLGHVEVDESRGMHICEDAVKRLKAERKFFKGFFGKTGKKAVKAVLWVSADGLRVVDEKTKDLIVDQTIEKVSFCAPDRNFDRAFSYICRDGTTRRWICHCFMAVKDTGERLSHAVGCAFAACLERKQKREKE
chain 2: not shown

Variants of: B1
Test: fluorescence polarisation (FP); n = 6

Row | Variant | Kd [µM]
1 | chain 1 F56A, chain 1 F57A | 43.5
2 | chain 1 F52A, chain 1 F53A, chain 1 F56A, chain 1 F57A | 60.6
3 | chain 1 R50E, chain 1 K51E, chain 1 K54E, chain 1 K59E | 224
4 | chain 1 K62A, chain 1 K63A | 37.5

Second part, the variant after the results:

Row | Kd [µM] | Variant
5 | 29 | chain 1 F52A, chain 1 F53A
6 | 4.5 | chain 1 G55A, chain 1 G58A

Variants of: B1
Test: fluorescence polarisation (FP); n = 4

Row | Kd [µM] | Variant
7 | 4.2 | chain 1 F143V
